Measured values taken from patent publication US8415399B2, “Retrovirus-infection inhibitor” (Nagasaki University, priority 2006, dated 2013).

System: NP2/CD4/X4 cell
Test: Cytotoxicity test: cell count, cell proliferation
Settings: NP2/CD4/X4 cell, Example 3

Question: With `CC1=C(/C=C/C(C)=C/C=C/C(C)=C/C(=O)Nc2ccc(O)cc2)C(C)(C)CCC1` [fenretinide, 4-Hydroxyphenylretinoid, reference compound] as the molecule, how does the “cell proliferation decreased to (relative to untreated)” value (2 μM) read?
Answer: 10%

Question: Which “cell proliferation suppressed to (relative to untreated)” value (20 μM) does the source give for `CC(C)=CCC/C(C)=C/CC/C(C)=C/CC/C(C)=C/C(=O)O` [GGA, geranylgeranoic acid] here?
Answer: 55%

Question: Which cell proliferation (5 μM) does the source give for `CC(C)=CCC/C(C)=C/CC/C(C)=C/C=C/C(C)=C/C(=O)O` [NIK-333] here?
Answer: scarcely influenced
